# Experimental data published in a collection of fitness landscapes (doi:10.1126/science.1257360).
# The other results are listed elsewhere or left out.
# B1: PhoQ; a variant is named by its letters at X, in order, P23837 (parent)
# chain: MKKLLRLFFPLSLRVRFLLATAAVVLVLSLAYGMVALIGYSVSFDKTTFRLLRGESNLFYTLAKWENNKLHVELPENIDKQSPTMTLIYDENGQLLWAQRDVPWLMKMIQPDWLKSNGFHEIEADVNDTSLLLSGDHSIQQQLQEVREDDDDAEMTHSVAVNVYPATSRMPKLTIVVVDTIPVELKSSYMVWSWFIYVLSANLLLVIPLLWVAAWWSLRPIEALAKEVRELEEHNRELLNPATTRELTSLVRNLNRLLKSERERYDKYRTTLTDLTHSLKTPLXXLQXXLRSLRSEKMSVSDAEPVMLEQISRISQQIGYYLHRASMRGGTLLSRELHPVAPLLDNLTSALNKVYQRKGVNISLDISPEISFVGEQNDFVEVMGNVLDNACKYCLEFVEISARQTDEHLYIVVEDDGPGIPLSKREVIFDRGQRVDTLRPGQGVGLAVAREITEQYEGKIVAGESMLGGARMEVIFGRQHSAPKDE
# Variants of: B1
# Test: enrichment ratio after two sorts for PhoP signalling (ratio (wild type AVST 3.29)); higher = more functional
# Details: with PhoP (E. coli)
row,Variant,enrichment ratio
1,MKGA,≤ 0.25
2,LAHD,≤ 0.25
3,AGRY,≤ 0.25
4,HDMN,≤ 0.25
5,WFTI,≤ 0.25
6,SNSA,13.1
7,LGVH,≤ 0.25
8,NPSW,≤ 0.25
9,HKHM,≤ 0.25
10,HPTG,≤ 0.25
11,DATA,≤ 0.25
12,QKIN,≤ 0.25
13,ASKP,≤ 0.25
14,AFCM,≤ 0.25
15,SYPM,≤ 0.25
16,NPVF,≤ 0.25
17,ETHQ,≤ 0.25
18,HCFC,≤ 0.25
19,GDPI,≤ 0.25
20,LQQF,≤ 0.25
21,HARL,≤ 0.25
22,PAIW,≤ 0.25
23,WEMD,≤ 0.25
24,IERF,≤ 0.25

row,Variant,enrichment ratio
1,TSFA,1.87
2,YNPA,≤ 0.25
3,QEMV,8.71
4,RQAI,≤ 0.25
5,YKKL,≤ 0.25
6,NDVL,≤ 0.25
7,MYMR,≤ 0.25
8,KDSS,≤ 0.25
9,FGVK,≤ 0.25
10,GRIM,≤ 0.25
11,GCGG,≤ 0.25
12,SEEY,≤ 0.25
13,HALY,≤ 0.25
14,THYR,≤ 0.25
15,HAAQ,≤ 0.25
16,GNSM,10.6
17,PSCI,≤ 0.25
18,IGCG,≤ 0.25
19,LHAK,≤ 0.25
20,LNPT,≤ 0.25
21,HDND,≤ 0.25
22,NRRH,≤ 0.25
23,EMYG,≤ 0.25
24,TRFK,≤ 0.25

row,Variant,enrichment ratio
1,FMMF,≤ 0.25
2,PKME,≤ 0.25
3,QTRN,≤ 0.25
4,TLDI,≤ 0.25
5,HHKL,≤ 0.25
6,HWGF,≤ 0.25
7,VYDE,≤ 0.25
8,FWHE,≤ 0.25
9,TAHA,0.718
10,WRIL,≤ 0.25
11,LAWL,0.669
12,QVKK,≤ 0.25
13,AVTS,4.52
14,RRIT,≤ 0.25
15,GALD,≤ 0.25
16,RCVW,≤ 0.25
17,RELW,≤ 0.25
18,LWWA,≤ 0.25
19,MTLI,10.4
20,DFEH,≤ 0.25
21,ISKL,≤ 0.25
22,LSVQ,≤ 0.25
23,LMQF,≤ 0.25
24,WVRN,≤ 0.25

row,Variant,enrichment ratio
1,KPIK,≤ 0.25
2,ANIK,≤ 0.25
3,RLEM,≤ 0.25
4,NHMC,≤ 0.25
5,DMAM,≤ 0.25
6,IEMI,≤ 0.25
7,RSSV,≤ 0.25
8,KRNY,≤ 0.25
9,FNKC,≤ 0.25
10,GTNS,≤ 0.25
11,DPAI,≤ 0.25
12,EGHF,≤ 0.25
13,GHMD,≤ 0.25
14,PILM,≤ 0.25
15,QCQM,≤ 0.25
16,TDVT,≤ 0.25
17,HHLL,≤ 0.25
18,IRIT,≤ 0.25
19,MSVL,8.77
20,DTLW,≤ 0.25
21,VFKV,≤ 0.25
22,YSDY,≤ 0.25
23,RLEY,≤ 0.25
24,IPME,≤ 0.25

row,Variant,enrichment ratio
1,YDTT,≤ 0.25
2,PSQF,≤ 0.25
3,IQYG,≤ 0.25
4,LCPG,≤ 0.25
5,LLTK,≤ 0.25
6,LIQM,≤ 0.25
7,PWHG,≤ 0.25
8,VWGI,≤ 0.25
9,NPMK,≤ 0.25
10,EKHR,≤ 0.25
11,VHMC,≤ 0.25
12,YQRE,≤ 0.25
13,KSPV,≤ 0.25
14,TWSA,≤ 0.25
15,IMVR,≤ 0.25
16,AKDT,≤ 0.25
17,GHEG,≤ 0.25
18,SPIF,≤ 0.25
19,MYKP,≤ 0.25
20,ASMK,17
21,LLVS,≤ 0.25
22,IWRI,≤ 0.25
23,HECQ,≤ 0.25
24,MVWP,≤ 0.25

row,Variant,enrichment ratio
1,LEWS,≤ 0.25
2,FAIL,0.486
3,HCHF,≤ 0.25
4,QRKP,≤ 0.25
5,DLNT,≤ 0.25
6,WVFR,≤ 0.25
7,GDNC,≤ 0.25
8,HYMM,≤ 0.25
9,GHYG,≤ 0.25
10,KAFI,≤ 0.25
11,WRQF,≤ 0.25
12,EQTS,≤ 0.25
13,WRDN,≤ 0.25
14,PRNI,≤ 0.25
15,RWSD,≤ 0.25
16,TVKI,≤ 0.25
17,GGQP,≤ 0.25
18,WGEI,≤ 0.25
19,PHFS,≤ 0.25
20,LLAQ,≤ 0.25
21,LMYR,≤ 0.25
22,TKTT,11.6
23,MVFM,≤ 0.25
24,YTIT,≤ 0.25

row,Variant,enrichment ratio
1,FEYL,≤ 0.25
2,WAWV,≤ 0.25
3,HDGM,≤ 0.25
4,EKTI,≤ 0.25
5,HPYM,≤ 0.25
6,KNVF,≤ 0.25
7,NGKT,≤ 0.25
8,YIFF,≤ 0.25
9,SKPK,≤ 0.25
10,WKNA,≤ 0.25
11,IYDH,≤ 0.25
12,RSEG,≤ 0.25
13,RPEI,≤ 0.25
14,YESS,≤ 0.25
15,YEGQ,≤ 0.25
16,QDTR,≤ 0.25
17,RYID,≤ 0.25
18,KVDK,≤ 0.25
19,FFEN,≤ 0.25
20,FPCR,≤ 0.25
21,IEIQ,≤ 0.25
22,ESIK,≤ 0.25
23,HCAY,≤ 0.25
24,YDIA,≤ 0.25

row,Variant,enrichment ratio
1,YDSP,≤ 0.25
2,NMWV,≤ 0.25
3,PWYI,≤ 0.25
4,YLYG,≤ 0.25
5,RKRW,≤ 0.25
6,VHCN,≤ 0.25
7,PWMR,≤ 0.25
8,FMWC,≤ 0.25
9,TRPP,≤ 0.25
10,IFPL,≤ 0.25
11,YPEY,≤ 0.25
12,GVRR,≤ 0.25
13,PTWK,≤ 0.25
14,KVTG,≤ 0.25
15,TLPC,≤ 0.25
16,RVYP,≤ 0.25
17,MVKP,≤ 0.25
18,HDFP,≤ 0.25
19,RNPM,≤ 0.25
20,IKRY,≤ 0.25
21,TTDR,≤ 0.25
22,STPV,9.19
23,EAGW,≤ 0.25
24,PYNW,≤ 0.25

row,Variant,enrichment ratio
1,EFID,≤ 0.25
2,GPNR,≤ 0.25
3,PLVV,≤ 0.25
4,LPVH,≤ 0.25
5,KKTH,≤ 0.25
6,PQRW,≤ 0.25
7,FCDC,≤ 0.25
8,PTTT,≤ 0.25
9,LQLQ,≤ 0.25
10,EIDL,≤ 0.25
11,KAVW,≤ 0.25
12,INWE,≤ 0.25
13,YHDY,≤ 0.25
14,MNRT,≤ 0.25
15,WFPH,≤ 0.25
16,GSQE,≤ 0.25
17,HINH,≤ 0.25
18,MVHG,≤ 0.25
19,QHHD,≤ 0.25
20,FHHE,≤ 0.25
21,LNFK,≤ 0.25
22,ARLC,≤ 0.25
23,CSLG,≤ 0.25
24,QSFS,2.3

row,Variant,enrichment ratio
1,STGT,1.71
2,AGRW,≤ 0.25
3,FNQK,≤ 0.25
4,GTFP,≤ 0.25
5,MGVF,≤ 0.25
6,NITP,≤ 0.25
7,MQMV,≤ 0.25
8,TSII,0.614
9,LKIY,≤ 0.25
10,ALHR,≤ 0.25
11,NSMA,≤ 0.25
12,HKAW,≤ 0.25
13,GTTC,≤ 0.25
14,NTLR,≤ 0.25
15,FLLM,4.04
16,NPGL,≤ 0.25
17,SDPS,≤ 0.25
18,LCKF,≤ 0.25
19,QTSW,≤ 0.25
20,ALWM,≤ 0.25
21,ATLW,7.72
22,FTTP,≤ 0.25
23,TKHM,≤ 0.25
24,RCCT,≤ 0.25

row,Variant,enrichment ratio
1,MTSK,≤ 0.25
2,QMIG,≤ 0.25
3,TFRK,≤ 0.25
4,QHLL,≤ 0.25
5,VQSW,≤ 0.25
6,HSNP,≤ 0.25
7,NFEQ,≤ 0.25
8,ETSY,≤ 0.25
9,MHAW,≤ 0.25
10,LKFS,≤ 0.25
11,LYFK,≤ 0.25
12,RIMC,≤ 0.25
13,NWMY,3.07
14,HCLH,≤ 0.25
15,EFQM,≤ 0.25
16,PEWG,≤ 0.25
17,NWTN,≤ 0.25
18,SRNQ,≤ 0.25
19,VLPS,≤ 0.25
20,IDWY,≤ 0.25
21,PKMQ,≤ 0.25
22,PDRS,≤ 0.25
23,PQAM,≤ 0.25
24,SVYP,≤ 0.25

row,Variant,enrichment ratio
1,KCMR,≤ 0.25
2,PDGD,≤ 0.25
3,RCRH,0.996
4,DMRP,≤ 0.25
5,KYAI,≤ 0.25
6,IFHV,≤ 0.25
7,EQSD,≤ 0.25
8,YVAD,≤ 0.25
9,IAVM,≤ 0.25
10,AMDK,≤ 0.25
11,PYGC,≤ 0.25
12,YQMC,≤ 0.25
13,FFKR,≤ 0.25
14,TARL,≤ 0.25
15,VLAW,≤ 0.25
16,WKRL,≤ 0.25
17,RCVL,≤ 0.25
18,APYM,≤ 0.25
19,LMAL,≤ 0.25
20,YMYI,≤ 0.25
21,PAPQ,≤ 0.25
22,KKHE,≤ 0.25
23,GTHL,≤ 0.25
24,TTQN,≤ 0.25

row,Variant,enrichment ratio
1,YQAE,0.299
2,VRNQ,≤ 0.25
3,MKYA,≤ 0.25
4,QMEI,≤ 0.25
5,DDWA,≤ 0.25
6,IYVV,≤ 0.25
7,YYEG,≤ 0.25
8,NKGI,≤ 0.25
9,MYHR,≤ 0.25
10,PVMD,≤ 0.25
11,QCWM,7.93
12,YDNN,≤ 0.25
13,FMYC,≤ 0.25
14,SHMN,≤ 0.25
15,QENR,≤ 0.25
16,LILP,≤ 0.25
17,HPLG,≤ 0.25
18,KCCY,≤ 0.25
